Source: the supplement of paper PMC8183993
Structures can show the parent of a compound that is named as a salt. ± gives the standard deviation of the averaged measurements. Whole data set: some 3,200 compounds, median “nuclei count (viability) relative to DMSO” near 99, cut for the lowest 2% near 16. This is one part of the list.

Test system: U2OS
Assay: nuclei count (viability) relative to DMSO (% of DMSO); higher = more viable cells
Conditions: 10 µM; 24 h
Protocol: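 Primary image-based screen in U2OS cells: compounds at 10 uM for 24 h, then a 1 h o-propargyl-puromycin (OPP) pulse, click labelling, and high-throughput microscopy. Mean cytoplasmic OPP intensity and nuclei count were normalised to DMSO wells within each plate (DMSO = 100) and averaged over triplicate plates.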

Compound | nuclei count
O=c1cc(N2CCOCC2)oc2c1ccc1ccccc12 | 80.3
CCOC(=O)C(C)(C)Oc1ccc(Cl)cc1 [Clofibrate] | 107
CC(C)NC[C@H](O)COc1ccc(CC(N)=O)cc1 [(S)-(-)-Atenolol] | 109
CC(C)NC[C@H](O)COc1ccc(CC(N)=O)cc1 [S-(-)-Atenolol] | 103
CO[C@@]1(NC(=O)CSCC#N)C(=O)N2C(C(=O)O)=C(CSc3nnnn3C)CS[C@@H]21 [Cefmetazole sodium salt] | 104
COc1ccc2[nH]c(I)c(CCNC(C)=O)c2c1 [2-Iodomelatonin] | 94.9
C[C@@H]1[C@H](O)[C@@H](C)/C=C/C=C/C=C/C=C/C=C/C=C/C=C/[C@H](O[C@@H]2O[C@H](C)[C@@H](O)[C@H](N)[C@@H]2O)C[C@@H]2O[C@](O)(C[C@@H](O)C[C@@H](O)[C@H](O)CC[C@@H](O)C[C@@H](O)CC(=O)O[C@H]1C)C[C@H](O)[C@H]2C(=O)O [Amphotericin B] | 90.1
C[C@@H]1[C@H](O)[C@@H](C)/C=C/C=C/C=C/C=C/C=C/C=C/C=C/[C@H](O[C@@H]2O[C@H](C)[C@@H](O)[C@H](N)[C@@H]2O)C[C@@H]2O[C@](O)(C[C@@H](O)C[C@@H](O)[C@H](O)CC[C@@H](O)C[C@@H](O)CC(=O)O[C@H]1C)C[C@H](O)[C@H]2C(=O)O [Amphotericin B (Abelcet)] | 46.2
C[C@H](NC(=O)[C@@H](O)c1cc(F)cc(F)c1)C(=O)N[C@@H]1C(=O)N(C)c2ccccc2-c2ccccc21 | 97.6
CN1CCN(C2=Cc3ccccc3Oc3ccc(Cl)cc32)CC1 | 86.5
CN1C2=CC(=O)/C(=N\NC(N)=O)C=C2CC1S(=O)(=O)O (stereo not drawn) [Carbazochrome sodium sulfonate] | 108
CCC(NC(C)C)C(O)c1ccc(O)c(O)c1 (stereo not drawn) [Isoetharine mesylate salt] | 107
CCC(Cc1c(I)cc(I)c(N)c1I)C(=O)O (stereo not drawn) [Iopanoic acid] | 100
CSCC[C@H](NC=O)C(=O)N[C@@H](CC(=O)O)C(=O)NCC(=O)N[C@@H](CS)C(=O)N[C@@H](CCC(=O)O)C(=O)N[C@@H](CC(C)C)C(=O)O | 99.6
CN1CCc2cccc3c2[C@H]1Cc1ccc(O)c(O)c1-3 [R(-) Apomorphine hydrochloride hemihydrate] | 83.1
CN1CCc2cccc3c2[C@H]1Cc1ccc(O)c(O)c1-3 [(R)-(-)-Apomorphine hydrochloride] | 102
C[C@H](NC(=O)Cc1cc(F)cc(F)c1)C(=O)N[C@H](C(=O)OC(C)(C)C)c1ccccc1 | 85.7
CC(=O)OCCNC(=O)c1cccnc1 [N-[2-(Acetoxy)ethyl]-3-pyridinecarboxamide] | 100
CNC(CC(=O)O)C(=O)O [NMDA (N-Methyl-D-aspartic acid)] | 98.2
CC(C)(C)C(=O)OCOP(=O)(COCCn1cnc2c(N)ncnc21)OCOC(=O)C(C)(C)C [Adefovir Dipivoxil (Preveon, Hepsera)] | 59.3
Cc1ccc(NC(=O)C(C)C)cc1C1CCN(Cc2ccc(Oc3ccc(F)c(F)c3)cc2)CC1 | 94.1
COc1cc(OC)c(C(=O)CCCN2CCCC2)c(OC)c1 [Buflomedil hydrochloride] | 91
O=c1ccc2ccc(O)c(O)c2o1 [Daphnetin] | 104
N#CC(c1ccc(Cl)cc1)c1c(Cl)cc(-n2ncc(=O)[nH]c2=O)cc1Cl (stereo not drawn) [Diclazuril] | 99.6
CC[C@H](CC[C@@H](C)[C@H]1CC[C@H]2[C@@H]3CC=C4C[C@@H](O)CC[C@]4(C)[C@H]3CC[C@]12C)C(C)C [?-Sitosterol] | 110

Compound | nuclei count
C/C=C1\NC(=O)[C@H]2CSSCC/C=C/[C@H](CC(=O)N[C@H](C(C)C)C(=O)N2)OC(=O)[C@H](C(C)C)NC1=O [Romidepsin (FK228 ,depsipeptide)] | 8.81
COc1ccc2c(c1)N(C[C@H](C)CN(C)C)c1ccccc1S2 [Methotrimeprazine maleat salt] | 107
O=C(O)CC[C@H]1CC[C@@](c2cc(F)ccc2F)(S(=O)(=O)c2ccc(Cl)cc2)CC1 | 101
CCCN(CCC)C(=O)C(CCC(=O)O)NC(=O)c1ccccc1 (stereo not drawn) [Proglumide] | 103
CCN1C(=O)NC(c2ccccc2)C1=O (stereo not drawn) [Ethotoin] | 93.5
Nc1nc(N)c2nc(-c3cccc(O)c3)cnc2n1 | 94.7 ± 4.5
CN1CCC(=C2c3ccccc3CC(=O)c3sccc32)CC1 [Ketotifen fumarate] | 99.9 ± 4.6
Cc1nnc(-c2ccc3occ(-c4ccc([S+](C)[O-])cc4)c3c2)o1 (stereo not drawn) | 112
COc1ccccc1N1CCN(CC(O)COc2cccc3ccccc23)CC1 (stereo not drawn) [Naftopidil hydrochloride] | 91.6
COc1ccccc1N1CCN(CC(O)COc2cccc3ccccc23)CC1 (stereo not drawn) [Naftopidil dihydrochloride] | 98.5
CN1CCCC(CC2c3ccccc3Sc3ccccc32)C1 (stereo not drawn) [Metixene hydrochloride] | 101
CC(C)(Sc1cc(C(C)(C)C)c(O)c(C(C)(C)C)c1)Sc1cc(C(C)(C)C)c(O)c(C(C)(C)C)c1 [Probucol] | 101 ± 3.9
COC(=O)c1sccc1S(=O)(=O)Nc1ccc(Nc2ccccc2)cc1OC | 93.7
Cn1ccnc1S [Methimazole (Tapazole, Northyx)] | 105
Cn1ccnc1S [Methimazole] | 94.2
Nc1c(Br)cc(Br)cc1CN[C@H]1CC[C@H](O)CC1 [Ambroxol hydrochloride] | 102 ± 2
Nc1c(Br)cc(Br)cc1CN[C@H]1CC[C@H](O)CC1 [Ambroxol] | 104
CC1Nc2ccc(Cl)cc2S(=O)(=O)N1 (stereo not drawn) | 111
Nc1ccc(-c2nc3ccc(-c4nc5ccc(N)cc5[nH]4)cc3[nH]2)cc1 | 82.2
C=CC(=O)Nc1cccc(Nc2nc(Nc3ccc(N4CCN(C(C)=O)CC4)cc3OC)ncc2C(F)(F)F)c1 | 57.6
CS(=O)(=O)CCNCc1ccc(-c2ccc3ncnc(Nc4ccc(OCc5cccc(F)c5)c(Cl)c4)c3c2)o1 [Lapatinib Ditosylate (Tykerb)] | 93.8
COc1cc(Nc2ncc(F)c(Nc3ccc4c(n3)NC(=O)C(C)(C)O4)n2)cc(OC)c1OC [R406(free base)] | 87.2
COc1cc(Nc2ncc(F)c(Nc3ccc4c(n3)NC(=O)C(C)(C)O4)n2)cc(OC)c1OC | 81.8
CC(=O)[C@@]1(O)CC[C@H]2[C@@H]3CCC4=CC(=O)CCC4=C3[C@@H](c3ccc(N(C)C)cc3)C[C@@]21C [Ulipristal] | 99.7
CC(C)(Oc1ccc(Cl)cc1)C(=O)O [Clofibric acid] | 103 ± 4

Compound | nuclei count
COc1ccc(C(=O)Nc2sc3c(c2C(N)=O)CCCC3)cc1OC | 107 ± 3.4
CN(C)CC/C=C1\c2ccccc2CSc2ccccc21 [Dosulepin hydrochloride] | 104
O=NO [Sodium Nitrite] | 104
CC(N)(Cc1ccc(O)c(O)c1)C(=O)O [L-(-)- _-Methyldopa] | 83.6
O=c1cc(N2CCNCC2)oc2c(-c3ccccc3)cccc12 | 91.8
COc1cc2ncc(-c3ccccc3)nc2cc1OC [Tyrphostin AG 1296 (AG 1296)] | 103
Cn1c(=O)c2c(ncn2CC(=O)O)n(C)c1=O [Acefylline] | 104
CS(=O)(=O)c1cccc(CNc2nc(Nc3ccc4c(c3)CCC(=O)N4)ncc2C(F)(F)F)c1 | 45.9 ± 3.2
CC1(C)CCC(CN2CCN(c3ccc(C(=O)NS(=O)(=O)c4ccc(NCC5CCOCC5)c([N+](=O)[O-])c4)c(Oc4cnc5[nH]ccc5c4)c3)CC2)=C(c2ccc(Cl)cc2)C1 | 95.1
CCCCCCCCCCC[C@@H](C[C@@H]1OC(=O)[C@H]1CCCCCC)OC(=O)[C@H](CC(C)C)NC=O [Orlistat] | 97.9
CCCCCCCCCCC[C@@H](C[C@@H]1OC(=O)[C@H]1CCCCCC)OC(=O)[C@H](CC(C)C)NC=O [Orlistat (Alli, Xenical)] | 90.5
Cc1ccc(NC(=O)c2ccc(CN3CC[C@H](N(C)C)C3)c(C(F)(F)F)c2)cc1Nc1nccc(-c2cncnc2)n1 [Bafetinib (INNO-406)] | 77.9
CC(C)(S)[C@@H](N)C(=O)O [Penicillamine] | 99.3
COc1ccc(-c2ccc(=N)n(CCCC(=O)O)n2)cc1 [Gabazine bromide] | 103
COc1ccc(-c2ccc(=N)n(CCCC(=O)O)n2)cc1 | 104
CO[C@H]1C[C@H](O[C@H]2[C@H](C)[C@@H](O[C@@H]3O[C@H](C)C[C@H](N(C)C)[C@H]3OC(C)=O)[C@@H](C)C[C@@]3(CO3)C(=O)[C@H](C)[C@@H](OC(C)=O)[C@@H](C)[C@@H](C)OC(=O)[C@@H]2C)O[C@@H](C)[C@@H]1OC(C)=O [Troleandomycin] | 105
Cc1cc(C(=O)NNCc2ccccc2)no1 [Isocarboxazid] | 109
O=C1CC2(CCCC2)CC(=O)N1CCNCC1COc2ccccc2O1 (stereo not drawn) | 104
CCOC(=O)[C@H](CCc1ccccc1)N[C@@H](C)C(=O)N1CCC[C@H]1C(=O)O [Enalapril] | 110
CCOC(=O)[C@H](CCc1ccccc1)N[C@@H](C)C(=O)N1CCC[C@H]1C(=O)O [Enalapril maleate] | 111
CO/N=C(\C(=O)N[C@@H]1C(=O)N2C(C(=O)O)=C(C[N+]3(C)CCCC3)CS[C@H]12)c1csc(N)n1 [Cefepime hydrochloride] | 88.7
C=CC(=O)Nc1ccc2ncnc(Nc3ccc(OCc4cccc(F)c4)c(Cl)c3)c2c1 | 73.2 ± 31
CC(Oc1c(Cl)cccc1Cl)C1=NCCN1 (stereo not drawn) [Lofexidine] | 111
